Source: PubChem BioAssay AID651567 (National Center for Advancing Translational Sciences (NCATS), 2012)
The campaign covered roughly 1,200 compounds. About 10 (0.8%) were called active. The shares of active, inactive and inconclusive entries below differ from those in the screen. Calls come from the whole dose curve; as a rule, active = well fitted inhibition curve with a large enough effect; inconclusive = small, poorly fitted or top-dose-only effect; inactive = no such curve, though single readings can be large or run the other way. A potency beside an inconclusive call is a rough fit, not a confirmed value.

Assay: qHTS Assay to Find Inhibitors of Chronic Active B-Cell Receptor Signaling: Hit Validation in OCI-Ly3 Assay
Conditions: OCI-Ly3 IkB-luciferase reporter, Chroma-Glo luminescence, 4 h; series mostly up to 46.1 µM
How it was run: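 Readout is dual-colour luminescence: IkB-alpha-luciferase fusion (green) against unfused luciferase (red), plus their ratio, scaled between basal cells and 10 uM MG-132. OCI-Ly3 cells, 0.5% FBS IMDM, compound with doxycycline (80ng/ml solution), 4 hrs at 37C; curves fitted and classed.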
Potency is the fitted concentration of half-maximal effect; tags give direction and shape of the fitted curve.

Potency, active:
CC(=O)Nc1cc(N=Cc2ccc(O)cc2O)c(Cl)cc1Cl 14.6 µM

Potency, inconclusive:
COc1cc(/C=C/c2ccc3c(Br)cc(Br)c(O)c3n2)ccc1O 6.51 µM [inhibitor, single point]
NC(=S)N=Nc1c(O)n(CCCl)c2ccc(Br)cc12 14.6 µM [inhibitor, partial curve]
NCCNC(=O)Cc1cccc(NC(=O)Cc2ccc(Nc3ncnc4c3ncn4[C@@H]3O[C@H](CO)[C@@H](O)[C@H]3O)cc2)c1 6.51 µM [inhibitor, single point]
CCOc1ccc2nc(NS(=O)(=O)Cc3ccccc3)sc2c1 6.51 µM [inhibitor, single point]
CCCC(=O)OCCNc1cc(Sc2nccn2C)c2nonc2c1[N+](=O)[O-] 6.51 µM [inhibitor, single point]
O=C(CCl)Nc1cccc(S(=O)(=O)NC2=NCCC2)c1 3.66 µM [inhibitor, full curve, poor fit]
COc1cccc(C(=O)Nc2ccc3c(cc2=O)[C@@H](NC(C)=O)CCc2cc(OC)c(OC)c(OC)c2-3)c1 20.6 µM [inhibitor, single point]
COCCNC(=S)N/N=C(\C)c1ccc2cc(OC)ccc2c1 1.3 µM [inhibitor, partial curve]
CN(C)c1nc(=NCc2ccco2)ss1 6.51 µM [inhibitor, single point]
CN(/N=C/c1cc(Br)cc(Br)c1O)c1cccc(C(F)(F)F)n1 16.4 µM [inhibitor, partial curve]
COc1cc(Br)cc(/C=C/c2ccc3cccc(O)c3n2)c1O 11.6 µM [inhibitor, partial curve]
COc1cc2nc(=S)n3[nH]c(COc4ccccc4C)nc3c2cc1OC 13 µM [inhibitor, partial curve]
O=S1(=O)N=C(Nc2nc3c(s2)CCCC3)c2ccccc21 18.4 µM [inhibitor, single point]
C/C(=N\NC(=O)c1ccc(F)cc1)c1ccccn1 6.51 µM [inhibitor, single point]
N#CC1=C2SCC(O)(c3ccccc3)N2C(=O)CC1c1cccs1 (stereo unspecified) 14.6 µM [inhibitor, partial curve]
O=C(NC(=S)Nc1cccc(F)c1)c1cccc([N+](=O)[O-])c1 0.0651 µM [inhibitor, partial curve]
O=C1N/C(=N/N=C/c2ccccc2O)SC1Cc1ccc(F)cc1 (stereo unspecified) 6.51 µM [inhibitor, single point]

Potency, inactive:
Cc1ccc(/C=C/C(=O)c2nc3ccccc3[nH]2)cc1
COc1ccc(-c2noc(CSc3nc(N)c(-c4ccccc4)c(=O)[nH]3)n2)cc1OC
Cc1noc(C)c1COc1ccc(CC(=O)NCc2ccccc2)cc1
Cc1ccc(Nc2nc(-c3c(C)nc4ccccn34)cs2)cc1
O=C(COc1ccc(C(=O)c2ccc(F)cc2)cc1)NCc1ccc(F)cc1
C=CCNc1ncnc2c1ncn2C1OC(CO)C(O)C1O (stereo unspecified)
O=C(CNC(=O)c1ccco1)N=Nc1c(O)n(CCc2ccccc2)c2ccccc12
COC(=O)c1cccc(-n2sc3ccccc3c2=O)c1
